# The campaign covered roughly 44,000 compounds. About 340 (0.77%) were called active. About 5% were inconclusive and are not listed. The call rests on the fitted dose curve; in most records, active means well fitted inhibition curve with a large enough effect; inconclusive means small, poorly fitted or top-dose-only effect; inactive means flat fitted curve, though single readings scatter. Some of the results follow.
# Assay: Acumen qHTS Assay for Inhibitors of the mTORC1 Signaling Pathway in MEF (Tsc2-/-, p53-/-) Cells: Sytravon;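 further: plate controls were DMSO for no effect and rapamycin for full effect; nearly all actives have a fitted effect of over 50% in size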
# Details: phospho-rpS6 immunofluorescence/PI, 24 h; series mostly up to 38.3 µM; activity change, negative = inhibition: at the top concentration
# Outline: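 Immunofluorescence of rpS6 phosphorylation in Tsc2-/-, p53-/- MEFs after 24 h compound exposure, normalized to propidium iodide signal. Activity is expressed as % positive cells, thresholded with 7.5 nM rapamycin.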
row,SMILES,"activity change, negative = inhibition"
1,CC1CCN(S(=O)(=O)c2ccc3c(c2)CCN3C(=O)Nc2ccccc2Br)CC1,inactive: -3.59%
2,COc1ccc2c(c1)cc(CNc1ccc(OC)c(OC)c1)c(=O)n2CC(=O)Nc1ccccc1C,inactive: -14.8%
3,Fc1ccc(N2CCN(c3nc4ccccc4c4nc(-c5ccccc5)nn34)CC2)cc1,inactive: 2.73%
4,COc1ccc(OCC(=O)Nc2ccc(-c3nc4cc(C)cc(C)c4o3)cc2)cc1,inactive: -8.03%
5,COc1ccc(CC(=O)Nc2nc3c(s2)CC(C)CC3)cc1 (centres undefined),inactive: -8.31%
6,Cc1ccc(NC(=O)C2CCCN(S(=O)(=O)c3ccc4[nH]c(=O)ccc4c3)C2)cc1Cl (centres undefined),inactive: -0.834%
7,COc1ccc2c(c1)c1c(c(=O)n(CCc3ccccc3)c(=O)n1Cc1cccc(Cl)c1)n2C,inactive: -4.65%
8,O=C(NCc1cccc(Cl)c1)c1c2c(nc3ccccc13)C(=O)N(C1CCCCC1)C2,inactive: 0.239%
9,CC(=O)Nc1cccc(NC(=O)c2cc3c(=O)n4cccc(C)c4nc3n2C)c1,inactive: -8.54%
10,CCOc1ccccc1Nc1ncnc2c1cnn2-c1ccc(C)cc1,inactive: 5.73%
11,CCCn1cc(S(=O)(=O)c2ccc(C)cc2)c(=O)c2cc(F)c(N3CCCC3)cc21,inactive: 0.353%
12,COc1cc(NC(=O)c2ccc(C)c(Cl)c2)ccc1NC(=O)c1cc2ccccc2o1,inactive: 2.08%
13,CC1CN(C(=O)N2CCC(C(=O)NCCCc3ccccc3)CC2)c2cc(Cl)ccc2O1 (centres undefined),inactive: 3.76%
14,CCCCOc1ccc(CNC(=O)c2cccc(NC(=O)N3CCSc4ncccc43)c2)cc1,inactive: -2.36%
15,Cc1c(C(=O)NCc2ccc(Cl)cc2)oc2ccc3c(c12)C(=O)CC(C)(C)O3,inactive: -0.762%
16,Cc1ccc(CNC(=O)CSc2ncc3c(n2)-c2cc(Cl)ccc2N(C)S3(=O)=O)cc1,inactive: 5.22%
17,O=C(CCc1nc(CN2CCN(S(=O)(=O)c3ccc(Br)cc3)CC2)no1)N1CCCCC1,inactive: -3.22%
18,CCOc1ccccc1C1CC(=O)Nc2c1c(=O)n(C)c1ncnn21 (centres undefined),inactive: -12.4%
19,CCc1nn(CC(=O)NC2CC2)c(=O)c2cc3c(OC)cccc3n12,inactive: -4.31%
20,CCCCNC(=O)C1CCCN(S(=O)(=O)CCC)C1 (centres undefined),inactive: 7.15%

row,SMILES,"activity change, negative = inhibition"
1,COc1cc(NC(=O)Cn2c(=O)n(CC3CCC(C(=O)NCCc4ccccc4)CC3)c(=O)c3ccccc32)cc(OC)c1 (centres undefined),inactive: 1.84%
2,COc1cc2cc(CNc3ccccc3)c(=O)n(CC(=O)Nc3cccc(Cl)c3C)c2cc1OC,inactive: -2.94%
3,COc1cccc(Cn2cc(C(=O)c3ccccc3)c(=O)c3cc4c(cc32)OCO4)c1,inactive: -1%
4,Cc1ccc(NCc2cccn2-c2nnc(N3CCC(C(=O)NCCc4ccc(Cl)cc4)CC3)s2)cc1,inactive: -0.498%
5,CCc1ccc(C(=O)c2cn(CC(=O)Nc3ccc4c(c3)OCCO4)c3ccc(F)cc3c2=O)cc1,inactive: -9.99%
6,COc1ccc(-n2c(C)nc3c(cnn3-c3ccc(F)cc3)c2=O)cc1,inactive: -9.3%
7,CCCCN(CC)CCCNC(=O)c1c(C)oc2ncnc(N3CCOCC3)c12,inactive: -2.15%
8,CCc1nn2c(=O)cc(COC(=O)c3cccc(NC(=O)CCc4ccccc4)c3)nc2s1,inactive: 0.748%
9,CCn1cc(/C=C(\NC(=O)c2ccc(OC)cc2)C(=O)NCCCn2ccnc2)c2ccccc21,inactive: 3.03%
10,COc1ccccc1CNC(=O)C1CCN(c2nc3ccc(Cl)cc3[nH]2)CC1,inactive: 10.7%
11,COc1cc2c(=O)n(CCC(=O)NCC3CCCO3)c(=O)n(CC(=O)Nc3ccccc3C)c2cc1OC (centres undefined),inactive: -1.83%
12,CCc1nn(CC(=O)NCCc2ccc(OC)cc2OC)c(=O)c2cc3occc3n12,inactive: -4.15%
13,CCCCc1ccc(-n2nc3cc(C)c(NC(=O)c4ccc(C#N)cc4F)cc3n2)cc1,inactive: 1.4%
14,O=C(NCCn1cc(SCc2ccc(C(F)(F)F)cc2)c2ccccc21)c1cccs1,inactive: -16.5%
15,Cc1nnc(SCC(=O)NCc2cccc(F)c2)c2nn(-c3ccccc3)c(C)c12,inactive: -2.5%
16,Cc1cccc(NC(=O)CSc2nc(=O)n(CCN3CCOCC3)c3c2CCC3)c1,inactive: -0.221%
17,Cc1ccc(-n2ncc(C(=O)NCCN3CCc4ccccc4C3)c2C2CCN(C(=O)OC(C)(C)C)CC2)c(C)c1,inactive: -6.19%
18,O=C(CN1C(=O)COc2ccc(S(=O)(=O)NC3CCCC3)cc21)Nc1ccc(F)c(Cl)c1,inactive: -7.22%
19,Cc1ccc2nc(-c3ccc(N4CCOCC4)cc3)c(Nc3ccccc3C)n2c1,inactive: -2.29%
20,COc1cccc(NC(=O)CN2C(=O)COc3ccc(S(=O)(=O)N4CCOCC4)cc32)c1,inactive: 3.81%

row,SMILES,"activity change, negative = inhibition"
1,CN(c1nnc(NC(=O)Nc2ccc(Br)cc2)s1)C1CCCCC1,inactive: -0.713%
2,COc1ccccc1CNc1ncnc2onc(-c3ccc(Cl)cc3)c12,inactive: -1.09%
3,Cc1ccc(NC(=O)Nc2csc3c2CCCC3)c(C)c1,inactive: -2.38%
4,Cc1cc(C(=O)Nc2ccc(Cl)cc2)c2c(C)nn(-c3ccccc3)c2n1,inactive: -5.48%
5,CCCS(=O)(=O)NCCc1sc2nc(-c3ccc(Cl)cc3)nn2c1C,inactive: 0.568%
6,NC(=O)C1CCN(C(=O)c2ccccc2NC(=O)c2nsc3ccccc23)CC1,inactive: -0.298%
7,CCOC(=O)c1c(NC(=O)c2cc(=O)c3c(C)cc(C)cc3o2)sc(C)c1C,inactive: 0.524%
8,COc1ccccc1Nc1nn2c(=O)c3ccc(C(=O)NC4CCCCC4)cc3nc2s1,inactive: 0.888%
9,CCOc1ccc(N(CC(=O)NCc2ccc(C)cc2)S(=O)(=O)c2c(C)[nH]c(=O)[nH]c2=O)cc1,inactive: -7.19%
10,Brc1ccc(-c2csc(-c3nc(-c4ccc(Br)s4)cs3)n2)cc1,inactive: 5.26%
11,CCOC(=O)N1CCc2c(sc(NCc3ccc(N(C)C)cc3)c2C(=O)Nc2ccccc2OCC)C1,inactive: -26.6%
12,CCc1ccc(NC(=O)c2sc3nc(-c4ccccc4)cn3c2C)cc1,inactive: -2.45%
13,CCN1CCN(C(c2cccc(OC)c2)c2c(O)cc(C)n(Cc3ccco3)c2=O)CC1 (centres undefined),inactive: -26.8%
14,CCN(CC)CCNC(=O)Cn1cnc2sc(C)c(S(=O)(=O)N3CCN(c4ccccc4OC)CC3)c2c1=O,inactive: 4.69%
15,CCOc1ccc(NC(=O)CSc2oc(-c3ccco3)nc2S(=O)(=O)c2ccc(Cl)cc2)cc1,inactive: -15.8%
16,O=C(Nc1ccccc1C(F)(F)F)N1Cc2ccccc2Oc2ncccc21,inactive: 0%
17,CC(NC(=O)c1ccc(Cn2c(SCc3ccccc3)nc3cccnc32)cc1)c1ccccc1 (centres undefined),inactive: -25.2%
18,CC(CCc1ccccc1)NC(=O)Cn1ncc2c3ccccc3n(Cc3cccc(Cl)c3)c2c1=O (centres undefined),inactive: -0.225%
19,COc1ccc(CN(C(=O)c2ccc(OCC(C)C)cc2)C2CCS(=O)(=O)C2)cc1 (centres undefined),inactive: -0.567%

# From PubChem BioAssay AID493208 (National Center for Advancing Translational Sciences (NCATS), 2011)
